Experimental data taken from PMC4336329 (PLoS ONE, 2015).
In all, about 310,000 compounds went through this assay and about 14,000 (4.5%) showed an effect of 50% or more. The effect is printed as a negative number. The list shows a part of the results.

target: human ether-à-go-go-related gene (hERG) potassium channel (human, UniProt Q12809); test: primary screen, population patch clamp on CHO cells stably expressing hERG
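Further: peak tail current of the secondary pulse compared with the same well before compound.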

Chain of human ether-à-go-go-related gene (hERG) potassium channel (Q12809 whole entry, looked up): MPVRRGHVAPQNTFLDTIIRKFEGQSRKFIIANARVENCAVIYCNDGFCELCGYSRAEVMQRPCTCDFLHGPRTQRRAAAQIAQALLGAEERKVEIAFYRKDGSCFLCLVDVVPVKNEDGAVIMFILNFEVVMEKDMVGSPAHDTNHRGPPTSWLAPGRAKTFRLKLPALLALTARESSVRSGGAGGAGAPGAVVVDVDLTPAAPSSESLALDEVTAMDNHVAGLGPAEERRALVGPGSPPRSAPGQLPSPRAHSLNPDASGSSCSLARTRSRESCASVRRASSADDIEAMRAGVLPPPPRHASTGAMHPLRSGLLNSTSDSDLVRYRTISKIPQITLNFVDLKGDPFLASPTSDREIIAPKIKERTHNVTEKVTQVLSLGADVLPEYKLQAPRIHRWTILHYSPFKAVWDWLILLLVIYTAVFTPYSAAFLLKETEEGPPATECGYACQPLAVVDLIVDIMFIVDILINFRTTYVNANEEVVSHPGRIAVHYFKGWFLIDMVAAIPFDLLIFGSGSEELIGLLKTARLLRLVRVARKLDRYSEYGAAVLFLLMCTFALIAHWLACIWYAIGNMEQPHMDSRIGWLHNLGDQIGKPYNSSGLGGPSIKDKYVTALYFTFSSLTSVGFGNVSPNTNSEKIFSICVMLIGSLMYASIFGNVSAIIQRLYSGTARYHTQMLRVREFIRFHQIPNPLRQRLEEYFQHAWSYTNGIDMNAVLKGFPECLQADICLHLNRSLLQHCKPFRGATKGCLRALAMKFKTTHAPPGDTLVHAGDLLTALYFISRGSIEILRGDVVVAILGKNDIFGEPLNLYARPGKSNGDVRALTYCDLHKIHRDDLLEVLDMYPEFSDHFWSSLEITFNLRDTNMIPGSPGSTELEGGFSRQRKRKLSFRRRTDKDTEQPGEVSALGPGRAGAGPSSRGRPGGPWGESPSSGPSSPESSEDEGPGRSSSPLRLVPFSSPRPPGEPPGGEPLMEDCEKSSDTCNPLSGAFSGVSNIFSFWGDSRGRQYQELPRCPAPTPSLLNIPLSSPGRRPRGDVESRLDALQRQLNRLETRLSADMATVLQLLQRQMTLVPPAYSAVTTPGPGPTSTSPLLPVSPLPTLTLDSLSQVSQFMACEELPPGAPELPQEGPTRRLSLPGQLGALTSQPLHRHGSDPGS

SMILES | hERG current change (%, negative = inhibition) at 10uM
Cc1ccc(C)c(S(=O)(=O)Nc2ccc3sc(C)nc3c2)c1 | -0.359%
CCn1c(SCC(=O)N(C)C2CCS(=O)(=O)C2)nnc1-c1ccccc1 (stereo not drawn) | 14.4%
Nc1c(C(=O)NCc2ccccc2)sc2nc(N3CCOCC3)c3c(c12)CCCC3 | 0.57%
O=C(CCNC(=O)c1ccccc1Cl)NN1C(=O)NC2(CCCCC2)C1=O | -4.92%
CCCCC1=CC2=C(c3ccco3)C(=O)C(C)(OC(=O)c3ccc(OC)cc3)C(=O)C2=CN1Cc1ccccc1 (stereo not drawn) | -21.9%
Cc1cc(Cl)c(S(=O)(=O)N2CCN(c3ccc(F)cc3)CC2)cc1OCC(=O)NC1CCCCC1 | -0.282%
CC1CN(C(=O)CCNS(=O)(=O)c2ccc(Br)cc2)CC(C)O1 (stereo not drawn) | -17.2%
Cc1ccc(S(=O)(=O)N2[C@@H](c3ccccc3)C(C(=O)O)=CC[C@H]2c2ccc(C(C)C)cc2)cc1 | 17.7%
Cc1ccc(-c2nc(NC(=O)c3cc(C(C)(C)C)nn3C)sc2C)cc1Cl | 12.9%
CC1(C)C[C@H]2C3=CCC4[C@@]5(C)CC[C@H](O)[C@](C)(CO)C5CC[C@@]4(C)[C@]3(C)C[C@H]3O[C@@H]1[C@H](O)[C@]32CO (stereo partly drawn) | 21%
CCOC(=O)C1C(=O)Nc2nc(C)nn2C1c1ccccc1 (stereo not drawn) | 14.4%
CCOc1ccccc1C(=O)NCC(=O)Nc1ccc(-c2ccccc2)cc1 | 0.26%
CCc1cc2cc(C)cc(C)c2nc1SCC(=O)N1CCN(C(=O)c2ccco2)CC1 | -16.2%
O=[N+]([O-])c1cccnc1N/N=C/c1ccccc1O | 8.24%
Cc1ccccc1Nc1nc(N)nc(CSc2nncn2C)n1 | 4.34%
COC(=O)c1cc(C(=O)NCCC(C)C)cc([N+](=O)[O-])c1 | 4.78%
O=C(NC1CCCCC1)C(c1ccc2ncccc2c1)N(Cc1cccs1)C(=O)c1cccs1 (stereo not drawn) | -51.3%
O=S(=O)(/N=C(\c1ccc(Cl)cc1)N1CCOCC1)c1ccccc1 | 3.03%
COc1ccccc1CC(=O)OC(C)C(=O)Nc1ccc(S(=O)(=O)N2CCCCC2)cc1 (stereo not drawn) | -7.21%
COc1ccc(C)cc1NC(=O)CN(c1ccccc1)S(C)(=O)=O | 1.57%
Cc1cccc(N2CCN(C(=O)c3cc(S(=O)(=O)N4CCCC4)cn3C)CC2)c1C | -38%
CCOc1ccc(C(=O)N2CCN(c3cccc(C)c3C)CC2)cc1 | -79.9%
CCC1=NN2C(=N)/C(=C/c3ccc(OS(=O)(=O)c4ccccc4)cc3)C(=O)N=C2S1 | -3.25%
Cl.NCCCCCc1nnc(SCC(N)=O)o1 | 3.24%
CCOC(=O)C1=NNC(C(=O)c2ccc(OC)cc2)C1c1ccccc1 (stereo not drawn) | -9.43%
Cc1ccc(N(Cc2cc3cc(C)ccc3[nH]c2=O)C(=O)c2cccs2)cc1 | 8.1%
COc1ccccc1NS(=O)(=O)c1cccc(NC(=O)Cc2cccs2)c1 | 4.01%

SMILES | hERG current change (%, negative = inhibition) at 10uM
O=C(N/N=C/c1ccoc1)c1cccc([N+](=O)[O-])c1 | 9.75%
O=C(CSc1ncnc2sccc12)N1CCN(C(=O)c2cccs2)CC1 | -47.1%
Cc1cc(N2CCC(C)CC2)nc2cccc(O)c12 | -28.7%
CCCCC(=O)NC(=S)Nc1cccc(NC(=O)c2ccccc2)c1 | 23.4%
CC(C)c1ccccc1NC(=S)NCc1nc2ccccc2[nH]1 | 12.1%
COc1ccc(CCNC(=O)COC(=O)C2CCCCC2)cc1 | 7.11%
COc1ccc(C)cc1NC(=O)C1CC(=O)OC12CCCCC2 (stereo not drawn) | -3.97%
O=C(Nc1nccs1)c1ccc(-c2ccc([N+](=O)[O-])cc2)o1 | 13.4%
Cc1ccc2c(c1)nnn2C1CCN(CC(=O)NCc2ccccc2F)CC1 | -59.9%
O=C(Cc1nnc(NC(=O)c2ccccc2)s1)N/N=C\c1ccc(O)c(O)c1 | 23.4%
O=C(CNS(=O)(=O)c1ccc2ccccc2c1)NCCc1ccccn1 | -0.702%
O=c1[nH]c(=O)n(-c2ccccc2)c2c1C(C(F)(F)F)(C(F)(F)F)N=C(C1CCCCC1)N2 | 3.73%
COc1cc(/C=N/NC(=O)c2cc(-c3ccccc3)sc2N)cc(OC)c1OC | 15.4%
COc1ccc(-n2cccc2/C=C2\C(=N)N3N=C(C(C)C)SC3=NC2=O)cc1 | 4.49%
COc1ccc(NC(=O)C/C(C)=N/NC(=O)c2ccncc2)c([N+](=O)[O-])c1 | -59.8%
CCCC[C@@H]1CNC(=S)N1CCC12CC3CC(CC(C3)C1)C2 | 18.9%
COCCNC(=S)N(CCc1c(C)[nH]c2ccc(F)cc12)Cc1ccc(C)cc1 | 8.54%
O=C1CC(N(O)c2ccccc2)C(=O)N1c1cc(Cl)cc(Cl)c1 (stereo not drawn) | 16.2%
O=C(CCCN1C(=O)/C(=C/c2ccc(F)cc2)SC1=S)NCCCn1ccnc1 | -71%
O=C(O)CCNC(=S)Nc1cccc(F)c1 | 21.9%
CCc1ccc(NC(=O)Nc2cccs2)cc1 | 23%
CSc1nc(NCc2ccccc2)c2c3c(sc2n1)CN(C)CC3 | -78%
CCOC(=O)c1[nH]c2cc(OC)c(OC)cc2c1NC(=O)CCN1CCSCC1 | 7.85%
CCCCn1c(-c2cccnc2)n[nH]c1=S | 19.9%
CN(C)c1ccc(CNc2ncnc3sccc23)cc1 | -4.33%
CCCN(CCC)CCNC(=O)CCC(=O)Nc1ccc2nc(N3CCOCC3)cc(C)c2c1 | -7.42%
COc1ccccc1NC(=O)CSc1nnc(C)n1Cc1ccccc1 | -34.5%
